# Assay results: the supplement of paper PMC3334620
# In all, about 33,000 sequences were measured (“E-score (-0.5 to 0.5)”: median about -0.011, highest 2% from about 0.28 on). Some of the results follow.
# Target: T1, Gcr1 (UniProt P07261)
# T1 sequence: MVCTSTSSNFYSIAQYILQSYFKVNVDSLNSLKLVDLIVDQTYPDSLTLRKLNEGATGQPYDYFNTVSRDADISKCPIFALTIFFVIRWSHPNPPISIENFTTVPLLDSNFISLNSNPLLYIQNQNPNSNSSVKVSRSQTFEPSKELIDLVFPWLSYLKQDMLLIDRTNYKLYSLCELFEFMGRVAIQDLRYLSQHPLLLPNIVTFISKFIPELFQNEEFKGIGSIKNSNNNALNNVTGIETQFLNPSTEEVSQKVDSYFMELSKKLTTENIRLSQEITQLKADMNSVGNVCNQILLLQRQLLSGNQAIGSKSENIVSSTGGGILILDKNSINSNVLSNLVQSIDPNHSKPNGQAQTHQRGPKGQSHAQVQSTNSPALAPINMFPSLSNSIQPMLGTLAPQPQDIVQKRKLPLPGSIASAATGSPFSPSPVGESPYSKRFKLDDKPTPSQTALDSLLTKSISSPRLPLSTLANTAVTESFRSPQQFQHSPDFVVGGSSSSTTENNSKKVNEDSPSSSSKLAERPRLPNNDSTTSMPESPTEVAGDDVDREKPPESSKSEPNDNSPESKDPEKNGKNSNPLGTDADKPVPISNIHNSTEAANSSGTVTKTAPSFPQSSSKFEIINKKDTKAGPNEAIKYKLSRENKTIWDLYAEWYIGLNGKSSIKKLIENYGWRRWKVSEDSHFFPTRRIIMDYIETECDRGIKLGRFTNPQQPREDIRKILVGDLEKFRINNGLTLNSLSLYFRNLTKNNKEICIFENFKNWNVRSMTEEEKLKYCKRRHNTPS
# Assay: PBM E-score (8-mer binding enrichment) (E-score (-0.5 to 0.5)); higher = stronger / more preferred TF binding; most listed sequences are background and not binding sites
# Conditions: protein concentration: 100 nM; construct: GST-full length
# Summary of the method: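 E-scores (a modified Wilcoxon-Mann-Whitney statistic) were assigned by the Universal PBM Analysis Suite to every ungapped eight-base word pooled with its reverse complement. The input came from universal all-10-mer Agilent arrays made double-stranded by primer extension and probed with GST-tagged yeast transcription factors at about 100-200 nM. Fluorescent anti-GST detected bound protein, and masliner normalised the scans.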
row,Sequence,PBM E-score
1,ATGGCTAA,-0.14
2,CCGAGGCA,-0.244
3,CACGCCTC,-0.0746
4,CCGTCTAC,-0.0528
5,CTTTCAAA,0.209
6,ATTGCTCG,-0.154
7,ACCTGACT,0.0172
8,AAACGGAT,0.155
9,GCACTTAA,0.106
10,GCCGAATA,0.2
11,CTCGACCA,-0.206
12,GGTGCACC,-0.0928
13,CAGAATCA,-0.0432
14,AACTATAG,0.0658
15,AATGTACA,0.11
16,CCTAGTAA,-0.0196
17,CATCATCC,-0.0162
18,GGCTACGA,-0.0566
19,ACGCAGTC,-0.0364
20,AGGACCCA,0.208
21,AATTGGAC,0.132
22,CCATGCGC,-0.154
23,GGGGTGAA,-0.121
24,GCAGTCCC,0.0603
25,CTTAATCC,-0.158

row,Sequence,PBM E-score
1,CATCGGTA,0.0128
2,GTTCTTAA,0.0766
3,CTTTCTGC,-0.11
4,CCGTGAAG,-0.196
5,GTCATAGA,-0.118
6,ATTGGTGG,0.181
7,ACGTACAT,-0.0458
8,TACTCCTA,0.0232
9,GTGAACCA,-0.0295
10,GGTGTGCA,-0.0866
11,CACGTTTA,0.0739
12,CTCACCTA,-0.115
13,CTCCAAAC,0.176
14,CTAGTTCC,0.0492
15,ACCTAGAC,0.0795
16,CAGGTCCG,-0.249
17,CCGGTCCA,-0.0711
18,AGCTTAGG,-0.145
19,AGTAGGAA,0.143
20,CGGGGGAA,-0.116
21,AGGTCCCA,-0.0217
22,CCAGGTGC,0.203
23,AGTAGGTC,-0.0554
24,TCACTAAA,0.134
25,AGCACAGG,0.0492

row,Sequence,PBM E-score
1,CGACTAAA,0.116
2,ATCACGAA,0.0928
3,AAATAAAG,0.171
4,TCCGCGAA,0.0467
5,GACAGTTA,-0.059
6,AGATCACG,-0.0767
7,AGAACTGC,-0.243
8,CGACGCCA,0.157
9,AGTGTCCA,0.057
10,AAAAGCGG,0.165
11,CCGCGAAG,-0.054
12,AATTGTAG,0.143
13,CTTTATGA,-0.121
14,GAGAGTCC,0.0202
15,ACCTCGAT,0.0787
16,AAGACAGG,0.154
17,CATTTACG,0.0351
18,CCGCGCTC,-0.0657
19,AACCTGCT,-0.0668
20,ATCGTTAG,-0.0624
21,AATCGAGA,0.0211
22,ATGCGAAC,0.0123
23,GGTCTTTA,-0.0204
24,ATAATCTC,-0.0588
25,TGAAGCAA,-0.125

row,Sequence,PBM E-score
1,CCTGACTA,1e-05
2,AGAATTAG,0.051
3,GTTTGTCA,-0.161
4,ATGCCTAC,-0.0791
5,AGGGGCAG,0.00723
6,ACCGATAC,-0.0146
7,ACAAGACA,-0.108
8,GGTAAGTA,0.0636
9,GCCGTAGA,-0.0195
10,ATTGGTAG,-0.0441
11,ATCCCGAC,0.0526
12,AAAAGCAA,0.0331
13,ATGCGTTA,-0.0638
14,GCTTCTTA,0.338
15,GAATCGCA,-0.111
16,CGTAGCGC,-0.135
17,AATAGCAA,0.0972
18,CGTAGTAG,-0.0254
19,ATACGGAG,0.0396
20,ATTTCGAG,0.0797
21,GACCTCGC,-0.215
22,AATGCACG,-0.246
23,AGTTTAGC,-0.0273
24,CAGTTTAC,-0.0219
25,CGTTTAAA,0.132

row,Sequence,PBM E-score
1,CCGATGGA,-0.189
2,GAAGACAC,-0.104
3,AGCCACAA,0.15
4,CAAAATCC,0.0235
5,ATAACCAA,-0.00969
6,AAGTCACG,-0.0643
7,ATAATCCC,-0.00771
8,AACCCGTG,-0.144
9,AACTTGCC,-0.0579
10,CGAAGTTC,-0.0413
11,GGAATTCC,0.426
12,GAACCCGC,0.106
13,AACGAGGA,-0.0643
14,CGGTCGGC,-0.175
15,AGAGTTAA,-0.109
16,GCAACCGA,0.117
17,GGATGTGA,0.0908
18,TCTAAGCA,-0.0506
19,AATAGTGG,0.425
20,AAAAATCT,0.0339
21,TCTACGCA,-0.106
22,AGAGTCGG,0.0307
23,AGAAAAGA,0.0232
24,CACCAATG,-0.0519
25,GAACTCGA,0.0624

row,Sequence,PBM E-score
1,CGCCAAGA,0.017
2,ATACATGA,0.189
3,CAATTCTA,0.0755
4,ACCTGCAA,-0.0561
5,AGCTGTAC,-0.0968
6,ATTCATGG,-0.00395
7,GCCGCTAA,0.188
8,CATTGAAA,0.19
9,CCCATGGA,0.124
10,CCGCCTCC,0.0177
11,AGCACCAG,0.156
12,TAACGAGA,-0.036
13,GCACCACA,0.199
14,TTATTGAA,0.031
15,CGGTGGCA,-0.174
16,AAAACCAT,0.0712
17,AGATGTGC,-0.136
18,CGACCTTA,-0.0457
19,AAGTTCTA,0.02
20,AATAGGTA,0.189
21,ATATCTTA,-0.0306
22,ACACTGGG,-0.205
23,CAGCTAAC,-0.212
24,CCGATGTC,-0.0839
25,TCATCTCA,-0.0801

row,Sequence,PBM E-score
1,AACTTACT,-0.278
2,GGAATGCC,0.0635
3,ACGCCAGG,-0.0367
4,GAGTCACC,-0.0707
5,CGCTTGTA,-9e-05
6,CTATTGTA,0.135
7,AAAGGGAG,-0.088
8,ACCTAGGA,-0.101
9,GCCGGCAA,-0.0541
10,ACGTCCAG,0.0487
11,AGAAGACT,0.00129
12,ATAATTTA,0.184
13,ATTACGGC,-0.0705
14,GTTGGAAA,0.147
15,GCTCATTA,0.034
16,CGTACCCA,0.128
17,AGAATCTC,-0.124
18,TACGTTAA,-0.186
19,AATACTCT,-0.107
20,ATCCCTCA,-0.0715
21,CTAGCCAA,-0.00946
22,AGTGCGAA,-0.0853
